# Measured values published in PubChem BioAssay (Tox21).
# Values joined by “and” are separate entries in the source; they are usually repeats but may differ in a detail not shown here. Equal values may be shown once. Inconclusive means that the source gave no clear call. Such entries were picked first, then a sample of the others. Potencies beside an inconclusive call are fits to weak or partial responses and may not hold up. Some compounds were tested as several samples or in several runs, with calls that do not always agree. Active and inactive are the calls of the source. The call rests on the fitted dose curve; in most records, active means well fitted curve in the direction sought with a large enough effect in the repeat runs; inconclusive means weak or mixed curves; inactive means no such curve, though single readings can be large; an effect the other way counts as inactive or inconclusive.
# Legend:
# [1] = target: Nuclear receptor subfamily 1 group I member 2 (Homo sapiens) (UniProt O75469); assay: CYP3A4 induction through human pregnane X receptor (PXR) by small molecules, qHTS assay (AID 1346984); conditions: DPX-2 HepG2 PXR, CYP3A4-luciferin luminescence, 24 h; series mostly up to 46.1 µM; further: nearly all actives have a fitted effect of over 40% in size
# Outline: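 DPX-2 reporter cells; 24h cpd, 37C; Luciferin-IPA 3uM final x3h; One-Glo 30 min RT; lumi read.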
# [2] = target: Cytochrome P450 2D6 (Homo sapiens) (UniProt P10635); assay: Cytochrome P450 Family 2 Subfamily D Member 6 (CYP2D6) small molecule antagonists: luciferase reporter qHTS assay (AID 1671196); conditions: P450-Glo CYP2D6 enzyme assay, luciferin luminescence, 1 h; series mostly up to 115 µM; further: nearly all actives have a fitted effect of over 50% in size
# Sequence of UniProt P10635 (P10635 whole entry, looked up): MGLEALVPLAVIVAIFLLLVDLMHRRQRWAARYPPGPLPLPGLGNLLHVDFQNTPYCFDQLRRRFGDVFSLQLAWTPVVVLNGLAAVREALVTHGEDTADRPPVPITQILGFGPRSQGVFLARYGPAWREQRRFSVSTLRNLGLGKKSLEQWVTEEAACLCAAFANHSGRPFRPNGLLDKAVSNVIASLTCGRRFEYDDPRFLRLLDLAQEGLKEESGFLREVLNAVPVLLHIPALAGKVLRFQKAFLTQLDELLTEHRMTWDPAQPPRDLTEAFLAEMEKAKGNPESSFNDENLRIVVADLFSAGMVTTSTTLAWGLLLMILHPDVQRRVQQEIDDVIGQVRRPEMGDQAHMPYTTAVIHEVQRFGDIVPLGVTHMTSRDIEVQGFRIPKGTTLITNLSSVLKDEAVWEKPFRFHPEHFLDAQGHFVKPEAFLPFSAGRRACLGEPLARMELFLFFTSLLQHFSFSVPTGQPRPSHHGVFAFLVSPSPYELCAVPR
# Outline: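 Inhibition of CYP2D6 was gauged by loss of luminescence, since light produced tracks the luciferin generated from a proluciferin substrate. A 10 min room-temperature preincubation preceded 1 h NADPH-supported turnover.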
# [3] = target: Cytochrome P450 1A2 (Homo sapiens) (UniProt P05177); assay: Cytochrome P450 Family 1 Subfamily A Member 2 (CYP1A2) small molecule antagonists: luciferase reporter qHTS assay (AID 1671199); conditions: P450-Glo CYP1A2 enzyme, luciferin luminescence, 1 h; series mostly up to 115 µM; further: nearly all actives have a fitted effect of over 50% in size
# Sequence of UniProt P05177 (P05177 whole entry, looked up): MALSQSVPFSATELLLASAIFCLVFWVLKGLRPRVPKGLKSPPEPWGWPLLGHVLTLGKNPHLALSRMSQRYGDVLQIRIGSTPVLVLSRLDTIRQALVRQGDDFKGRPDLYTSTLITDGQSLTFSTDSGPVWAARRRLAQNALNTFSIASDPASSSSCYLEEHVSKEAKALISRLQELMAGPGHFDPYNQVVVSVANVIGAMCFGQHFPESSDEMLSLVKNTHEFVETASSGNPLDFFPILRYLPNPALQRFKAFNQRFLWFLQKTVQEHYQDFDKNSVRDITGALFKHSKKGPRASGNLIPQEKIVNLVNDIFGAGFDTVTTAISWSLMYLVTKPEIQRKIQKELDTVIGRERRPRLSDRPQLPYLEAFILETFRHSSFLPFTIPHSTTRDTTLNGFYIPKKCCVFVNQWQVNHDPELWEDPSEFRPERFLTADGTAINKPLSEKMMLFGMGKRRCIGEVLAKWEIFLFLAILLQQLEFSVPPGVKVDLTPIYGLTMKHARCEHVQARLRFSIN
# Outline: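 Signal from luciferin formed by CYP1A2 from a proluciferin substrate is read as luminescence, expressed in relative luminescence units. Compounds sit with enzyme 10 min, NADPH-driven reaction runs 1 h, all at room temperature.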
# [4] = target: Nuclear receptor subfamily 1 group I member 2 (Homo sapiens) (UniProt O75469); assay: Human pregnane X receptor (PXR) small molecule agonists, qHTS assay (AID 1346982); conditions: PXR-Luc HepG2, CYP3A4 luciferase reporter, 24 h; series mostly up to 92.4 µM; further: nearly all actives have a fitted effect of over 35% in size
# Outline: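 Luminescence (ONE-Glo, 30 min RT) after 24 hr compound exposure of PXR-Luc HepG2 cells; cells rested 5 hr post-plating in 5% charcoal-stripped FBS medium.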
# [5] = target: Cytochrome P450 2C19 (Homo sapiens) (UniProt P33261); assay: Cytochrome P450 Family 2 Subfamily C Member 19 (CYP2C19) small molecule antagonists: luciferase reporter qHTS assay (AID 1671197); conditions: P450-Glo CYP2C19 enzyme, luciferin luminescence, 1 h; series mostly up to 115 µM; further: nearly all actives have a fitted effect of over 65% in size
# Sequence of UniProt P33261 (P33261 whole entry, looked up): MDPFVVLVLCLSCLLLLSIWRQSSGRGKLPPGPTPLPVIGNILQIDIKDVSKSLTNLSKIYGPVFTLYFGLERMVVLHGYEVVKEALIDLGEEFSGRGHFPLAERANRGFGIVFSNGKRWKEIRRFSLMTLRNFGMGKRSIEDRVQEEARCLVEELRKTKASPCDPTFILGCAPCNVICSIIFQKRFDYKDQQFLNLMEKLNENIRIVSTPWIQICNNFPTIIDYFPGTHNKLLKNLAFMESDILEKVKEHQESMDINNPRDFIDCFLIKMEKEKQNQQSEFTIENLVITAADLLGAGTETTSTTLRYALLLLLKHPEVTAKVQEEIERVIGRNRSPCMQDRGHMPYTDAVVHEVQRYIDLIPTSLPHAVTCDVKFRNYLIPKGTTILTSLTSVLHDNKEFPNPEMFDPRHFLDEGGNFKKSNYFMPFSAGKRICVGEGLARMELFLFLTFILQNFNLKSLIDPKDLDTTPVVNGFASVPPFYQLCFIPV
# Outline: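 P450-Glo CYP2C19 system: enzyme-substrate mix with compound 10 min at room temperature, then NADPH regeneration solution, 1 h at 37C. Proluciferin-to-luciferin conversion detected by luminescence after 20 min with detection reagent; ketoconazole as positive control.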
# [6] = target: Cytochrome P450 2C9 (Homo sapiens) (UniProt P11712); assay: Cytochrome P450 Family 2 Subfamily C Member 9 (CYP2C9) small molecule antagonists: luciferase reporter qHTS assay (AID 1671198); conditions: P450-Glo CYP2C9 enzyme assay, luciferin luminescence; series mostly up to 115 µM; further: nearly all actives have a fitted effect of over 50% in size
# Sequence of UniProt P11712 (P11712 whole entry, looked up): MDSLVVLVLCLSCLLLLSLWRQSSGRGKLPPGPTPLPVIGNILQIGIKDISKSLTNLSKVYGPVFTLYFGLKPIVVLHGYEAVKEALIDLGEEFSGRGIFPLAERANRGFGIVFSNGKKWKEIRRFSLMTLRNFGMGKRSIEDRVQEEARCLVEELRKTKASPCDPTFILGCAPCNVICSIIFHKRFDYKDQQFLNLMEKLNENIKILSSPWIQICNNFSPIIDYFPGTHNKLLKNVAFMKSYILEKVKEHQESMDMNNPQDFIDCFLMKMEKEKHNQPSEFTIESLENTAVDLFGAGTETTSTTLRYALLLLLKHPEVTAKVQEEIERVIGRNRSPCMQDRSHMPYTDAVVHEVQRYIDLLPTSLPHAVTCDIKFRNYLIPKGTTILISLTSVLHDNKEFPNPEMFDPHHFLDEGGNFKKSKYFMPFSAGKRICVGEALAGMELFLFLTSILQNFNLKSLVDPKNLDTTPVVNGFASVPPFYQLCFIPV
# Outline: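 Enzyme-substrate mix preincubated with compound 10 min at room temperature; reaction started with NADPH regeneration solution, 1 h 37C. Luminescent luciferin product read after 20 min detection reagent.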
# [7] = target: Voltage-gated inwardly rectifying potassium channel KCNH2 (Homo sapiens) (UniProt Q12809); assay: Human Ether-a-go-go-Related Gene (hERG) channel small molecule antagonists: fluorescence cell-based qHTS assay (AID 1671200); conditions: hERG-U2OS cells, FluxOR thallium flux fluorescence; series mostly up to 76.8 µM; further: nearly all actives have a fitted effect of over 50% in size
# Sequence of UniProt Q12809 (Q12809 whole entry, looked up): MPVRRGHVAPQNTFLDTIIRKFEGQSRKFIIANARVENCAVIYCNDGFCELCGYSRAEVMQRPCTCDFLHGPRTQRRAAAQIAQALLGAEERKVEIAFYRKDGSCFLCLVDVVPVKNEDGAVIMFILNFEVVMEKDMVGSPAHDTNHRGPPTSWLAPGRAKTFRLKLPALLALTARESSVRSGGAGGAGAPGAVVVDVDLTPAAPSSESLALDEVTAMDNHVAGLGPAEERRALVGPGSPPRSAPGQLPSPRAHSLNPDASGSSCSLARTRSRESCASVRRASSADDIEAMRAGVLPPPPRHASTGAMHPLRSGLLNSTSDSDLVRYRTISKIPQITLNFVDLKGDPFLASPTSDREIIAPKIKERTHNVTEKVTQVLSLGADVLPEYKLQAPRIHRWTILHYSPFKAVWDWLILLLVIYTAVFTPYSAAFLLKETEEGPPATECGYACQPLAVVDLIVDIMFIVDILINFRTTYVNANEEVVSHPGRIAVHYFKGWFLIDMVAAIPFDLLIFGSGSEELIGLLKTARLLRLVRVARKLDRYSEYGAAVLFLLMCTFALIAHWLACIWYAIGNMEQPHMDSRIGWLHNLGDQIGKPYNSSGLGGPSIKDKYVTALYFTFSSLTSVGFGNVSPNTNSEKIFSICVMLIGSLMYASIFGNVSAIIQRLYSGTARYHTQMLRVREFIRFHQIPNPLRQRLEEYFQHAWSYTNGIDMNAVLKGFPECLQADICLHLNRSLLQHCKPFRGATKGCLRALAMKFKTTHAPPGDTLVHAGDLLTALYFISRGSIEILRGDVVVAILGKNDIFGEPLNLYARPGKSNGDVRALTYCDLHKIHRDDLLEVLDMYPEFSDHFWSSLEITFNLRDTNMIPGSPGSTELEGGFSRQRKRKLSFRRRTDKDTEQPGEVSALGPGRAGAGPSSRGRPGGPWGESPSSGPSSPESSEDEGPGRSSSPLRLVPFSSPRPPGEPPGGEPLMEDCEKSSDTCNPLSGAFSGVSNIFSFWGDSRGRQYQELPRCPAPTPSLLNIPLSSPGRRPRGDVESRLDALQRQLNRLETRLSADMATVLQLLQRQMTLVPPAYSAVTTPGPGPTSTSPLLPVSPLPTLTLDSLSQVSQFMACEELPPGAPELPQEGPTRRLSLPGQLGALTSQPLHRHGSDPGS
# Outline: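 Quantitative HTS in hERG-U2OS cells: thallium entry through the channel reports activity, read as continuous 480/540 nm fluorescence over 2 min after stimulus addition.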
# [8] = target: Cytochrome P450 3A4 (Homo sapiens) (UniProt P08684); assay: Cytochrome P450 Family 3 Subfamily A Member 4 (CYP3A4) small molecule antagonists: luciferase reporter qHTS assay (AID 1671201); conditions: P450-Glo CYP3A4 enzyme, luciferin luminescence, 1 h; series mostly up to 115 µM; further: nearly all actives have a fitted effect of over 50% in size
# Sequence of UniProt P08684 (P08684 whole entry, looked up): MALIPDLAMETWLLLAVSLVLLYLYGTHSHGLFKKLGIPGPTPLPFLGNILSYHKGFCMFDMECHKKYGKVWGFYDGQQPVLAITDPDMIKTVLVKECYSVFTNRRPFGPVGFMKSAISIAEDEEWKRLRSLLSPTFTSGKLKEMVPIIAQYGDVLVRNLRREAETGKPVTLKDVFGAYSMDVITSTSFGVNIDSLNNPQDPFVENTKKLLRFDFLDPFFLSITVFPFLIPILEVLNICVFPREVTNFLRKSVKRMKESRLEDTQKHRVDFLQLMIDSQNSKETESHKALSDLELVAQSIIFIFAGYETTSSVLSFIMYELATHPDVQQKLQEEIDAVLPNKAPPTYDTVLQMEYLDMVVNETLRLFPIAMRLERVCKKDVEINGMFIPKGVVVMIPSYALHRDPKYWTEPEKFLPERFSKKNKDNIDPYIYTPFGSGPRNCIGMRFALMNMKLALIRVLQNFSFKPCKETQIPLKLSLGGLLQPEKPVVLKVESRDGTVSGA
# Outline: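 Inhibition of CYP3A4 is measured as loss of light: the enzyme converts a proluciferin substrate to luciferin, detected luminescently. Reaction ran 1 h at room temperature with NADPH regeneration after a 10 min compound preincubation.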
# [9] = target: Nuclear receptor subfamily 1 group I member 2 (Homo sapiens) (UniProt O75469); assay: Human pregnane X receptor (PXR) activation by small molecules, qHTS assay (AID 1346985); conditions: DPX-2 HepG2 CYP3A4-luciferase, 24 h; series mostly up to 38.3 µM; further: nearly all actives have a fitted effect of over 40% in size
# Outline: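 DPX-2 cells (HepG2 co-transfected with a PXR response element and a CYP3A4-promoter luciferase construct) were seeded at 2,000 per well, rested 5 hr at 37C, then exposed to DMSO-dissolved compounds for 24 hr. Activation was read as luciferase luminescence.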
# [10] = target: Nuclear receptor subfamily 1 group I member 2 (Rattus norvegicus) (UniProt Q9R1A7); assay: Rat pregnane X receptor (rPXR) activation by small molecules, qHTS assay (AID 1346983); conditions: rPXR luciferase reporter cells, One-Glo luminescence, 24 h; max activation: stronger effect = higher value; further: nearly all actives have a fitted effect of over 20% in size
# Sequence of UniProt Q9R1A7 (Q9R1A7 whole entry, looked up): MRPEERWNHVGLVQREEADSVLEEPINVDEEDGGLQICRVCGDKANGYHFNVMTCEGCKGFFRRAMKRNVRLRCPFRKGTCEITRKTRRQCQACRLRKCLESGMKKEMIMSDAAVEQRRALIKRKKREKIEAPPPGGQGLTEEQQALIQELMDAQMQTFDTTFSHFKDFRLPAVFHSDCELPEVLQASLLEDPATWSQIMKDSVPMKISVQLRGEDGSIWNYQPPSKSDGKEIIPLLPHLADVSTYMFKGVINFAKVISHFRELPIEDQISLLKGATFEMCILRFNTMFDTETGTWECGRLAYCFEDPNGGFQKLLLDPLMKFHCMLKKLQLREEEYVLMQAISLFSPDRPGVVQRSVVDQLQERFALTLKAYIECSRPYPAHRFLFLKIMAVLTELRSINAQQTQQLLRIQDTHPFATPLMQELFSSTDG
# Outline: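 Luminescent readout (One-Glo luciferase, 30 min room temperature) followed 24 hr compound treatment at 37 C of rPXR cells plated 2,000 per well and preincubated 5hr; qHTS format with compounds delivered in DMSO.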
# Potency means the concentration at half of the fitted maximal effect; tags describe the fitted curve by direction and shape.
smiles,measurement,setting,value
CCCCN(CCCC)CCC(O)c1cc2c(Cl)cc(Cl)cc2c2cc(C(F)(F)F)ccc12 (centres undefined),Potency,[1],inactive
same,Potency,[2],active: 1.55 µM
same,Potency,[3],"inconclusive: 30.9 µM [inhibitor, partial curve]"
O=C1CCCCCCCCCCC1,Potency,[4],inactive
same,Potency,[5],"inconclusive: 89.4 µM [inhibitor, single point]"
same,Potency,[6],"inconclusive: 89.4 µM [inhibitor, partial curve, poor fit]"
O=C(O)Cc1ccccc1Nc1c(Cl)cccc1Cl,Potency,[4],"inconclusive: 77 µM [activator, single point]"
same,Potency,[5],"inconclusive: 89.4 µM [inhibitor, single point]"
Cc1ccccc1S,Potency,[4],"inconclusive: 43.6 µM [activator, single point]"
same,Potency,[5],"inconclusive: 63.8 µM [inhibitor, single point]"
[Na+],Potency,[4],"inconclusive: 27.3 µM [activator, single point]"
same,Potency,[5],"inconclusive: 89.4 µM [inhibitor, single point]"
same,Potency,[6],inactive
same,Potency,[3],"inconclusive: 39.9 µM [inhibitor, partial curve] and inconclusive: 71 µM [inhibitor]"
CC(=O)C1=C(C)[C@@H]2C[C@@]3(C1)[C@H](C)CC[C@H]3C2(C)C,Potency,[4],"inconclusive: 90.2 µM [activator, single point] and inconclusive: 61.1 µM [activator, single point]"
same,Potency,[6],"inconclusive: 83.3 µM [inhibitor, partial curve, poor fit] and inconclusive: 56.4 µM [inhibitor, partial curve, poor fit]"
same,Potency,[7],"inconclusive: 20.4 µM [inhibitor, partial curve]"
same,Potency,[8],"inconclusive: 7.42 µM [inhibitor, full curve]"
CC(=O)CC(=O)Nc1ccc(S(=O)(=O)O)cc1,Potency,[4],"inconclusive: 19.3 µM [activator, partial curve, poor fit]"
same,Potency,[6],inactive
same,Potency,[7],inactive
O=C(O)c1cc(=O)[nH]c(=O)[nH]1,Potency,[1],inactive
same,Potency,[9],inactive
same,Potency,[2],"active: 6.34 µM and inconclusive: 43.6 µM [inhibitor, single point]"
O=C(O)c1cc(O)c2ccccc2c1O,Potency,[4],active: 1.93 µM
same,Potency,[7],"inconclusive: 54.9 µM [inhibitor, partial curve, poor fit]"
same,Potency,[8],"inconclusive: 71 µM [inhibitor, partial curve]"
CCCC(CC)CCCCCCCN (centres undefined),Potency,[4],"inconclusive: 70.3 µM [activator, single point]"
same,Potency,[7],active: 28.2 µM
CCOC(=O)c1ccc(C#Cc2ccc3c(c2)C(C)(C)CCS3)nc1,Potency,[10],active: 10 µM
same,Potency,[6],inactive
same,Potency,[3],inactive
same,Potency,[7],"inconclusive: 26.8 µM [inhibitor, partial curve, poor fit]"
CCCC1C(CC)=CC(CC)=CN1c1ccccc1 (centres undefined),Potency,[4],active: 24.3 µM
same,Potency,[7],"inconclusive: 43.6 µM [inhibitor, partial curve]"
O=C(O)Cc1ccc(OCCNC[C@H](O)c2ccccc2)cc1,Potency,[4],inactive
same,Potency,[6],inactive
same,Potency,[8],inactive
OC1CCCCC1,Potency,[4],"inconclusive: 43.3 µM [activator, partial curve, poor fit]"
same,Potency,[5],inactive
same,Potency,[3],inactive
CN1CCCN=C1COC(=O)C(O)(c1ccccc1)C1CCCCC1 (centres undefined),Potency,[1],"inconclusive: 31.6 µM [activator, single point]"
same,Potency,[5],inactive
Cc1cccc(C)c1OCC(=O)N[C@@H](Cc1ccccc1)[C@@H](O)C[C@H](Cc1ccccc1)NC(=O)[C@H](C(C)C)N1CCCNC1=O,Potency,[10],active: 11.2 µM
same,Potency,[1],"inconclusive: 2.82 µM [activator, full curve, poor fit]"
same,Potency,[9],active: 3.98 µM
OC[C@@H](O)[C@@H](O)[C@H](O)[C@@H](O)CO,Potency,[4],inactive
same,Potency,[3],"inactive and inconclusive: 30.4 µM [inhibitor, full curve]"
Cc1c(N)cccc1N,Potency,[4],"inconclusive: 27.9 µM [activator, single point]"
same,Potency,[5],"inconclusive: 91.4 µM [inhibitor, single point]"
same,Potency,[6],active: 64.7 µM
same,Potency,[3],active: 23 µM
CC1CC(OC(=O)C(O)c2ccccc2)CC(C)(C)N1C (centres undefined),Potency,[10],"inconclusive: 14.1 µM [activator, single point]"
CC=C(Cl)Cl,Potency,[4],"inconclusive: 53.5 µM [activator, single point]"
same,Potency,[5],"inconclusive: 78.2 µM [inhibitor, single point]"
same,Potency,[6],inactive
same,Potency,[3],inactive
Nc1nc(N)nc(-c2ccccc2)n1,Potency,[4],"inconclusive: 68 µM [activator] and inconclusive: 54.5 µM [activator, partial curve, poor fit]"
same,Potency,[6],inactive
Cc1ccc(C(C)(C)O)cc1,Potency,[4],inactive
same,Potency,[3],"inconclusive: 71 µM [inhibitor, partial curve, poor fit]"
Cc1ccc(C(C)C)c(O)c1,Potency,[9],inactive
same,Potency,[2],inactive
same,Potency,[6],"inconclusive: 44.8 µM [inhibitor, partial curve] and inconclusive: 21.9 µM [inhibitor, partial curve]"
C=C(C)CCCC(C)CCO (centres undefined),Potency,[4],active: 54.5 µM
same,Potency,[6],active: 39.9 µM
same,Potency,[3],"inconclusive: 71 µM [inhibitor, partial curve]"
same,Potency,[7],inactive
CC(C)CCCCCOC(=O)CS,Potency,[4],"inconclusive: 54.5 µM [activator, partial curve, poor fit]"
same,Potency,[5],inactive
same,Potency,[3],inactive
same,Potency,[8],"inconclusive: 28.3 µM [inhibitor, full curve]"
CC1(C)O[C@@H]2C[C@H]3[C@@H]4CCC5=CC(=O)C=C[C@]5(C)[C@@]4(F)[C@@H](O)C[C@]3(C)[C@]2(C(=O)CO)O1,Potency,[10],active: 12.6 µM
same,Potency,[2],"active: 31.9 µM and inconclusive: 63.3 µM [inhibitor, partial curve, poor fit] and inactive"
same,Potency,[5],"inactive and inconclusive: 79.6 µM [inhibitor, single point]"
same,Potency,[6],"inconclusive: 63.7 µM [inhibitor, partial curve] and inconclusive: 56.4 µM [inhibitor, partial curve] and inconclusive: 19.5 µM [inhibitor, full curve]"
Nc1ncnc2c1ncn2[C@H]1CC[C@@H](CO)O1,Potency,[4],"inconclusive: 31.2 µM [activator, partial curve]"
same,Potency,[5],"inconclusive: 1.15 µM [inhibitor, single point]"
same,Potency,[3],"inconclusive: 32.3 µM [inhibitor, partial curve]"
CN(CCOc1ccc(NS(C)(=O)=O)cc1)CCc1ccc(NS(C)(=O)=O)cc1,Potency,[9],"inconclusive: 11.2 µM [activator, single point]"
same,Potency,[2],"inconclusive: 27.5 µM [inhibitor, partial curve, poor fit]"
same,Potency,[5],inactive
O=C(/C=C/c1ccccc1)OCc1ccccc1,Potency,[1],"inconclusive: 0.447 µM [activator, full curve, poor fit]"
same,Potency,[2],inactive
same,Potency,[7],"inconclusive: 49 µM [inhibitor, partial curve] and inconclusive: 16.9 µM [inhibitor, partial curve, poor fit]"
Cc1ccc2c(Br)cc(Br)c(O)c2n1,Potency,[9],"inconclusive: 28.2 µM [activator, single point]"
same,Potency,[5],"inconclusive: 43.6 µM [inhibitor, single point]"
same,Potency,[6],"inconclusive: 43.6 µM [inhibitor, single point]"
NNC(=O)CP(=O)(c1ccccc1)c1ccccc1,Potency,[10],"inconclusive: 12.6 µM [activator, single point]"
same,Potency,[5],"inconclusive: 43.6 µM [inhibitor, single point]"
same,Potency,[6],"inconclusive: 8.71 µM [inhibitor, full curve]"
same,Potency,[3],inactive
Cc1cccc2n[nH]nc12,Potency,[4],"inconclusive: 60.9 µM [activator, partial curve] and inconclusive: 34.4 µM [activator, partial curve]"
same,Potency,[6],inactive
same,Potency,[3],"inconclusive: 39.8 µM [inhibitor, partial curve] and inconclusive: 71 µM [inhibitor, partial curve]"
same,Potency,[8],inactive
Cc1cc(C)c(N)cc1C,Potency,[4],"inconclusive: 60.9 µM [activator, partial curve]"
same,Potency,[8],active: 35.5 µM
COc1cc(C(=O)NCCCCCC(=O)O)cc(OC)c1OC,Potency,[9],inactive
O=C(O)c1cccc(-c2noc(-c3ccccc3F)n2)c1,Potency,[10],"inconclusive: 0.0178 µM [activator, full curve, poor fit]"
same,Potency,[2],active: 3.47 µM
Brc1cc2ccccc2c2ccccc12,Potency,[4],"inconclusive: 69.1 µM [activator, single point]"
same,Potency,[6],"inconclusive: 56.8 µM [inhibitor, partial curve]"
same,Potency,[8],"inconclusive: 90.1 µM [inhibitor, partial curve, poor fit]"
COc1cccc2c1C(=O)c1c(O)c3c(c(O)c1C2=O)C[C@@](O)(C(=O)CO)C[C@@H]3O[C@H]1C[C@H](N)[C@H](O[C@@H]2CCCCO2)[C@H](C)O1,Potency,[10],"inconclusive: 12.6 µM [activator, partial curve]"
same,Potency,[9],"inconclusive: 12.6 µM [activator, single point]"
same,Potency,[2],"inconclusive: 15.5 µM [inhibitor, full curve]"
same,Potency,[5],"inconclusive: 15.5 µM [inhibitor, partial curve, poor fit]"
COc1cc(OC)cc(OC)c1,Potency,[9],inactive
